Measured values reported in patent US20260201045A1.

Legend:
[1] = molecular target: full length cynomolgus monkey CNTFR (mfCNTFR, amino acids 1-372, NCBI Reference Sequence Accession #XP_005581519.1) (cynomolgus monkey); test: flow cytometry on HEK293/mfCNTFR cells
[2] = molecular target: mouse CNTFR extracellular domain expressed with a C-terminal myc-myc-hexahistidine tag (mouse) (UniProt O88507); test: SPR Biacore 4000, mAb captured by anti-human Fc, antigen injected, 25 C
[3] = molecular target: mouse CNTFR extracellular domain expressed with a C-terminal myc-myc-hexahistidine tag (mouse) (UniProt O88507); test: SPR Biacore 4000, mAb captured by anti-human Fc, antigen injected, 37 C

Sequence of UniProt O88507 (O88507 other isoform, or with tags, fused parts or gaps limits assumed): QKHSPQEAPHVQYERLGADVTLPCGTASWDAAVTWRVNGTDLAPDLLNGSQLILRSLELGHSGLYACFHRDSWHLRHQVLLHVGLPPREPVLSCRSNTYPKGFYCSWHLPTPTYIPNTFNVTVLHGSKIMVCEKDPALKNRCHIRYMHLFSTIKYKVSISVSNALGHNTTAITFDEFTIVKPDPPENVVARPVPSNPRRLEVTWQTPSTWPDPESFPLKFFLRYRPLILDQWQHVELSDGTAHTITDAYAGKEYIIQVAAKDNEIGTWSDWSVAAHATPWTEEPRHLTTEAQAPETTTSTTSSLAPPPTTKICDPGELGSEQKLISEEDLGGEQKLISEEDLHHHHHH

EC50 [1]: 1.4 nM
Max. Fold Binding (fold over secondary antibody alone) [1]: 521
Ag Bound at 100 nM (RU) [2]: 0 RU
Ag Bound at 100 nM (RU) [3]: 0 RU
B1: REGN8938 (antibody, human IgG4 S228P, kappa, V domains shown)
VH: QVQLVESGGDVVQPGRSLRLSCAASGFTFSYYGMHWVRQPPGKGLEWVTIISFDGSQKYYADSVKGRFTISRDNSKNTVFLQMNSLRTEDTGFYYCAAQSSTWPEYFQYWGQGTLVTVSS
VL: [about 100 residues skipped]
